# Experimental data from article PMC4336329 (PLoS ONE, 2015).
# About 14,000 (4.5%) of roughly 310,000 compounds showed an effect of 50% or more. Effects have a minus sign here. The list shows a part of the results.
# Molecular target: human ether-à-go-go-related gene (hERG) potassium channel (human, UniProt Q12809)
# Test: primary screen, population patch clamp on CHO cells stably expressing hERG
# 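Note: peak tail current of the secondary pulse compared with the same well before compound.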
# human ether-à-go-go-related gene (hERG) potassium channel, sequence (Q12809 whole entry, looked up): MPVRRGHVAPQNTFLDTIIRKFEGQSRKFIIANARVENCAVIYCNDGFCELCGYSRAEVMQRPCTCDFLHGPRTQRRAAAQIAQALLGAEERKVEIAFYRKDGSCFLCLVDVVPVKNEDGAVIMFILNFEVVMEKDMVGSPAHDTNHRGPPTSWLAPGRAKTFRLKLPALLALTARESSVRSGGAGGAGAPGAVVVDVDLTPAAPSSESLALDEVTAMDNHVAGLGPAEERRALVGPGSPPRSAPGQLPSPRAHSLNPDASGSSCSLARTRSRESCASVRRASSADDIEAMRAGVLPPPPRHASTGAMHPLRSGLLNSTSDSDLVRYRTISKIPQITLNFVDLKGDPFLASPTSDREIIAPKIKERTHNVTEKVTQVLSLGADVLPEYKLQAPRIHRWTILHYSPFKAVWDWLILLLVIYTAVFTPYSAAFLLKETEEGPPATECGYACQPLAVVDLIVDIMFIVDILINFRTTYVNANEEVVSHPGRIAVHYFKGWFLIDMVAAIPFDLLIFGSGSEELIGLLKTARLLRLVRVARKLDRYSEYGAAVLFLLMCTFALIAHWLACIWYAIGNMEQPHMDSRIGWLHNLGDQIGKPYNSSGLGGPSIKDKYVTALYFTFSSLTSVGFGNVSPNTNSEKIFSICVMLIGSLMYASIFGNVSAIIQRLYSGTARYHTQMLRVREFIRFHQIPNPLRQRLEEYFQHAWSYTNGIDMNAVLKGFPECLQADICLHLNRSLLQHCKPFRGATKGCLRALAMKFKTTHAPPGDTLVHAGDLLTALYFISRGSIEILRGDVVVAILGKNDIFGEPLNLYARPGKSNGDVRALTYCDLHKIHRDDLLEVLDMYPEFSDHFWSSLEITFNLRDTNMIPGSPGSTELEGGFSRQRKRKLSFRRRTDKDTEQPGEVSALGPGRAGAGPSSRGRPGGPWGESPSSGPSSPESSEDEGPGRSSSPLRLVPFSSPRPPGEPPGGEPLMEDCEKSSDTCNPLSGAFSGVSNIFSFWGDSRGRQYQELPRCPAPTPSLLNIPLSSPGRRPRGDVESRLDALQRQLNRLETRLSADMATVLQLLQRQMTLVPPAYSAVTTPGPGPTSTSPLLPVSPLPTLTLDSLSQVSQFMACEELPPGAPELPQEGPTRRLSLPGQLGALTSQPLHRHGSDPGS
row,Compound,"hERG current change (%, negative = inhibition) at 10uM"
1,CCSC1=C(C#N)C(CC(C)C)C2=C(CCCC2=O)N1 (stereo not drawn),5.34%
2,Cc1cc(N)nc(SCC(=O)N2C(C)CCCC2C)n1 (stereo not drawn),13.7%
3,CCOc1ccc(C2=Nn3c(nnc3-c3ccc(OC)cc3)SC2)cc1,-16%
4,Cc1nn(C)c(Cl)c1CN1CCC(Oc2ccc(C(=O)N3CCCC3)cc2)CC1,-0.868%
5,CC(C)Oc1ccccc1OCCCCn1cnc2ccccc2c1=O,-43.1%
6,O=C(Cn1ccc(=O)[nH]c1=O)Nc1ccc(C(=O)O)c(O)c1,23.9%
7,CC(CCc1ccccc1)NC(=O)COC(=O)C1CCC(C(C)(C)C)CC1 (stereo not drawn),7.2%
8,NC(=O)C1CCN(C(=O)COCc2cc(-c3ccc4c(c3)OCO4)on2)CC1,6.4%
9,O=C(COc1ccccc1)NCC(c1ccco1)N1CCCCC1 (stereo not drawn),-15.7%
10,Cc1cc(C)c(C#N)c(SCc2[nH]nc3c2C(c2ccccc2)C(C#N)=C(N)O3)n1 (stereo not drawn),0.663%
11,CC(O)Cn1ccccc1=N (stereo not drawn),4.9%
12,O=S(=O)(c1ccccc1)N1CCN(C(=S)Nc2ccc(F)cc2)CC1,-3.33%
13,Cc1ccc(NC(=O)Cn2c(=O)n(CCCCC(=O)NCc3ccco3)c(=O)c3ccccc32)cc1,-1.81%
14,CCOC(=O)Cc1cc(=O)n2[nH]c(C(C)(C)C)cc2n1,15.5%
15,Cc1c(N)cccc1N,9.7%
16,COc1ccc2cc(/C(C)=N/NC(=O)C3CC3)ccc2c1,1.9%
17,O=C(c1ccc2ccccc2c1)C1CCCN(C(=O)CN2C(=O)CSC2=O)C1 (stereo not drawn),-27.6%
18,Cc1ccc(C(c2nnnn2CCc2ccccc2)N2CCC(C)CC2)cc1.Cl (stereo not drawn),13.8%
19,COC(=O)C1=C(C)NC2=C(C(=O)CCC2)C1c1cn(Cc2ccc(Cl)cc2Cl)nc1-c1ccccc1 (stereo not drawn),-7.7%
20,O=C(NCC(=O)N(Cc1ccco1)C(C(=O)NC1CCCC1)c1cccnc1)c1ccco1 (stereo not drawn),14%
21,CCNc1nc(Nc2ccc(C)c(Cl)c2)c2cnn(C)c2n1,-4.01%
22,NC(=O)CSc1nnc2sc3ccccc3n12,-17.5%
23,CSc1ccccc1OCc1cc(C(=O)NCCN2CCCc3ccccc32)no1,-3.86%

row,Compound,"hERG current change (%, negative = inhibition) at 10uM"
1,COc1ccc(C2C3=C(N=C4SCC(=O)N42)c2ccccc2CC3)cc1OC (stereo not drawn),3.54%
2,COc1cc(CNC2CCCC2)c(Br)cc1OCc1ccccc1.Cl,-72.1%
3,O=S(=O)(Nc1ccc(N2CCCCC2)cc1)c1ccc(F)cc1,15.1%
4,CC12CCC(=O)N1C(C(=O)NCCc1ccc(S(N)(=O)=O)cc1)CS2 (stereo not drawn),15.1%
5,Brc1cccc(-c2nnc(SCc3nc4ccccc4[nH]3)o2)c1,1.23%
6,Nc1nc(SCC(=O)O)[nH]c(=O)c1NC(=O)c1ccco1,16.5%
7,Cc1ccc(COC(=O)c2nn(-c3ccccc3)nc2N)cc1,1%
8,O=C(CNCc1ccncc1)Nc1cc(S(=O)(=O)N2CCCCC2)ccc1Cl,-63.9%
9,CCOc1ccc2nc(-c3ccc(OC)c(OC)c3)cc(C(=O)O)c2c1,21.3%
10,CCCCC1OC23CCCCC2C(C#N)(C(=N)O3)C1(C#N)C#N (stereo not drawn),4.17%
11,CCCCCCC1CC(=O)NC(=S)N1 (stereo not drawn),17.4%
12,COC(=O)Cn1cnc2sc(C)c(S(=O)(=O)N3CCC(C)CC3)c2c1=O,-6.66%
13,COc1ccc(C(=O)C(OC(=O)c2ccccc2)c2ccccc2)cc1 (stereo not drawn),-1.35%
14,COc1ccc(NC(=O)C2CCCN(S(=O)(=O)c3ccc(Cl)cc3)C2)cc1OC (stereo not drawn),6.79%
15,Cc1ccc(C(=O)NCCCNCCCNC(=O)c2ccc(C)nc2)cn1,-17.1%
16,CCCNC(=O)OC[C@H]1O[C@H](CCO/N=C/[C@@H](OC)[C@H](C)/C=C/CC(=O)OC)C=C[C@@H]1Oc1ccc(OC)cc1,-11.1%
17,O=C(NCc1ccccn1)C(=O)NCC(c1ccco1)N1CCN(c2ccc(F)cc2)CC1 (stereo not drawn),-32.9%
18,CCOc1ccccc1N1CCN(C(=O)c2csc(C)c2CC)CC1,-8.41%
19,Cc1noc(/C=C/c2ccco2)c1S(=O)(=O)N1CCC(C(=O)Nc2ccc(Cl)cn2)CC1,-29.3%
20,CC(C)[C@H](N)c1cn([C@@H](CC(N)=O)C(=O)N2CCNCC2)nn1,7.33%
21,Cc1ccc(CCNC(=O)CCS(=O)(=O)c2cc3c(cc2C)NC(=O)CO3)cc1,3.1%
22,COCCn1c(CCc2ccccc2)n[nH]c1=S,14.6%
23,COC(=O)C(NC(=O)c1cccnc1Cl)C(C)C (stereo not drawn),-13.6%

row,Compound,"hERG current change (%, negative = inhibition) at 10uM"
1,Cc1ccc(N(CC(=O)N=Nc2c(O)[nH]c3ccccc23)S(C)(=O)=O)c(C)c1,-27.8%
2,Cc1ccc(S(=O)(=O)NC(C)(C)CSc2nnc(Nc3ccccc3)s2)cc1,-1.34%
3,Cc1noc(C)c1CSc1nnc2ccccn12,5.58%
4,CSc1nc(=S)n(-c2ccccc2)c(C)c1C(C)=O,11.9%
5,CCCn1c(NC(=O)CSCC(=O)Nc2cc(C)on2)nc2ccccc21,10.8%
6,CCOCCCNC(=O)c1cc(Sc2ccc(C)cc2)nc2ccccc12,-19.3%
7,COc1ccc(-c2nnnn2-c2ccccc2OC)cc1,-9.02%
8,CCOC(=O)c1ccc(Nc2nc(N)c3cc(OC)c(OC)cc3n2)cc1,1.84%
9,O=C(NC1CCN(C(=O)Nc2ccc(F)cc2)CC1)c1ccccc1F,-5.82%
10,COc1ccc(/C=C/C(=O)NCC(c2ccc(F)cc2)N2CCOCC2)cc1OC (stereo not drawn),2.15%
11,Cc1ccc(C(=O)NN(C)c2nc3ccccc3nc2C(F)(F)F)cc1,-0.286%
12,Cl.OC(CNCc1cccc(Br)c1)c1ccccc1 (stereo not drawn),-44%
13,Cl.NC(N)=NC(N)=Nc1cccc(Cl)c1,-2.14%
14,CCC1=C2CC[C@H]3C(=O)NC(=O)[C@H]3[C@H]2[C@@]2(Cc3ccccc3)C(=NCC(=O)OC)OC(=O)N2C1=O,18.7%
15,CCN(CC)C(=O)CSc1nc2cc3c(cc2c(=O)n1Cc1ccc(OC)cc1)OCO3,12.1%
16,COc1ccccc1CCNC(=O)c1cnn2c(C(F)F)cc(C)nc12,-33.6%
17,Nn1c(=O)c2ccccc2n2c(SCc3ccccc3)nnc12,-37.5%
18,O=C1Cc2ccccc2C(=O)N1c1ccccc1,-14.7%
19,COC(=O)CNC(c1ccccc1)c1cc(Br)ccc1NC(=O)CCN1CCOCC1 (stereo not drawn),-31.7%
20,Cc1ccc(NC(=O)C2CCN(C(=O)[C@@H]3Cc4ccccc4CN3)CC2)c(C)c1,-41.4%
21,O=C(O)CCC(=O)/C=C/c1ccccc1,26.4%
22,COc1cccc(/C=N/NC(=O)CN2CC(c3ccccc3)CC2=O)c1OC (stereo not drawn),-10%
23,CCOC(=O)c1cc(-c2ccco2)nc2c1c(C)nn2-c1cccc(Cl)c1,0.799%

row,Compound,"hERG current change (%, negative = inhibition) at 10uM"
1,O=C(Oc1cccnc1)c1ccc([N+](=O)[O-])cc1Cl,-2.42%
2,Cl.OCCN(CCO)c1nc(-c2ccccc2)nc2c1oc1ccccc12,27.4%
3,NC(=O)CN1C(=O)C(O)(CC(=O)c2ccccc2O)c2ccccc21 (stereo not drawn),4.9%
4,Cc1c(NC(=O)Nc2ccc(C#N)cc2)c(=O)n(-c2ccccc2)n1C,-2.41%
5,COC(=O)C1CC(O)CN1S(=O)(=O)c1cccs1 (stereo not drawn),21.2%
6,CCc1ccc(NC2=NCCCS2)cc1,-9.94%
7,O=C(Cc1cccs1)Nn1c(Cc2cccs2)nc2ccccc2c1=O,3.3%
8,CC(C)(C)[C@@H]1C=C(C(=O)O)O[C@H](OCc2ccc(CO)cc2)C1,5.98%
9,CN1C(C)(C)CC(=NOC(=O)c2ccccc2)CC1(C)C,-16.9%
10,O=C(Cn1c(=O)n2ncnc2c2c3c(sc21)CCCC3)c1ccccc1,-20.1%
11,COC(=O)C1C(=O)NCC1c1ccc(OC)cc1 (stereo not drawn),3.5%
12,Nc1c2c(nc3sc4c(c13)CCCC4)CCCCCC2,-2.15%
13,O=C(NC1CC2CCC(C1)N2Cc1ccco1)c1ccccc1 (stereo not drawn),-25.4%
14,Cc1c(NC(=S)N/N=C/c2ccc(O)cc2)c(=O)n(-c2ccccc2)n1C,8.18%
15,CC(C)Cc1ccc(S(=O)(=O)N2CCN(c3ccccn3)CC2)cc1,17.3%
16,O=C(CC1C(=O)N(c2ccccc2)C(=S)N1c1ccccc1)c1ccc(Br)cc1 (stereo not drawn),22.9%
17,O=C1/C(=C/c2ccncc2)Oc2cc(OS(=O)(=O)c3ccccc3)ccc21,-2.95%
18,COC(=O)CNC(=O)CCC(=O)N1CCN(C(c2ccccc2)c2ccccc2)CC1,-0.103%
19,CCOC(=O)C1CCCN(C(=O)CCNS(=O)(=O)c2ccc3c(c2)CCC(=O)N3)C1 (stereo not drawn),3.03%
20,CC1CCN(CC(=O)N2c3ccccc3CC2C)CC1.Cl (stereo not drawn),1.42%
21,O=C(COC(=O)C1CCCC1)NCc1ccc(Cl)cc1,-4.3%
